The values below come from publication PMC12820563.

Some of the results follow. The list includes weakly bound sequences.

The test concerns the target T1, MBP-FoxP3dN (UniProt Q99JB6).
T1 sequence: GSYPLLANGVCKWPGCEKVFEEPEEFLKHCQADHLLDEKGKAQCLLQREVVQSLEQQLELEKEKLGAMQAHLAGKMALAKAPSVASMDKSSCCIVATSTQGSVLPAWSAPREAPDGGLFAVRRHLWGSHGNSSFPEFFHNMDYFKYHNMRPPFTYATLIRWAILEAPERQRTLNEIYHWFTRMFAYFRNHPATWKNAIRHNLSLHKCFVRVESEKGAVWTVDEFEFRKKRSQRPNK
Description: PD-seq (MBP pull-down with sequencing). To be noted: 20 mM Tris-HCl pH 7.5, 100 mM NaCl, 1.5 mM MgCl2, 0.4 uM protein, 0.1 uM dsDNA library, 30 min, room temperature, amylose pull-down; high values mean tight binding; double strand, one strand shown.
For “GATGATTGTTCTCCCAGCTGATGAATTAAGAGTCTCGAGTAAACAAATTTTCCTAATCTTTCTGTTCAAGCGCCATCTAC”, the binding signal (RPM ratio (pull-down/input)) is 1.2.

Take “GATGATTGTTCTCCCAGCTGATGAATTATATATATCGAGTAAACAAATTTTCCTAATCTTTCTGTTCAAGCGCCATCTAC”: the binding signal (RPM ratio (pull-down/input)) amounted to 1.27.

On to “GATGATTGTTCTCCCAGCTGATGAATTAAACTAGTCGAGTAAACAAATTTTCCTAATCTTTCTGTTCAAGCGCCATCTAC”, for which the binding signal (RPM ratio (pull-down/input)) amounted to 0.282.

In the case of “GATGATTGTTCTCCCAGCTGATGAATTGACGACTTCGAGTAAACAAATTTTCCTAATCTTTCTGTTCAAGCGCCATCTAC”, the binding signal (RPM ratio (pull-down/input)) was determined as 0.483.

As for “GATGATTGTTCTCCCAGCTGATGAATTCTTGTATTCGAGTAAACAAATTTTCCTAATCTTTCTGTTCAAGCGCCATCTAC”, the binding signal (RPM ratio (pull-down/input)) amounted to 1.7.

As for “GATGATTGTTCTCCCAGCTGATGAATTTTGCAATTCGAGTAAACAAATTTTCCTAATCTTTCTGTTCAAGCGCCATCTAC”, the binding signal (RPM ratio (pull-down/input)) amounted to 5.75.

With “GATGATTGTTCTCCCAGCTGATGAATTAAGCAGGTCGAGTAAACAAATTTTCCTAATCTTTCTGTTCAAGCGCCATCTAC”, the binding signal (RPM ratio (pull-down/input)) came to 0.469.

On to “GATGATTGTTCTCCCAGCTGATGAATTTGACACCTCGAGTAAACAAATTTTCCTAATCTTTCTGTTCAAGCGCCATCTAC”, for which the binding signal (RPM ratio (pull-down/input)) was found to be 1.59.

For the sequence “GATGATTGTTCTCCCAGCTGATGAATTGACGAGGTCGAGTAAACAAATTTTCCTAATCTTTCTGTTCAAGCGCCATCTAC”, the binding signal (RPM ratio (pull-down/input)) was 0.237.

Turning to “GATGATTGTTCTCCCAGCTGATGAATTGATCCCATCGAGTAAACAAATTTTCCTAATCTTTCTGTTCAAGCGCCATCTAC”, the binding signal (RPM ratio (pull-down/input)) came to 0.368.

With “GATGATTGTTCTCCCAGCTGATGAATTGTGCCGCTCGAGTAAACAAATTTTCCTAATCTTTCTGTTCAAGCGCCATCTAC”, the binding signal (RPM ratio (pull-down/input)) is 3.3.

In the case of “GATGATTGTTCTCCCAGCTGATGAATTGATGAGTTCGAGTAAACAAATTTTCCTAATCTTTCTGTTCAAGCGCCATCTAC”, the binding signal (RPM ratio (pull-down/input)) was 0.832.

Regarding “GATGATTGTTCTCCCAGCTGATGAATTCCGGGTGTCGAGTAAACAAATTTTCCTAATCTTTCTGTTCAAGCGCCATCTAC”, the binding signal (RPM ratio (pull-down/input)) is 0.669.

Regarding “GATGATTGTTCTCCCAGCTGATGAATTTTTGGACTCGAGTAAACAAATTTTCCTAATCTTTCTGTTCAAGCGCCATCTAC”, the binding signal (RPM ratio (pull-down/input)) came to 0.234.

As for “GATGATTGTTCTCCCAGCTGATGAATTCGGGGACTCGAGTAAACAAATTTTCCTAATCTTTCTGTTCAAGCGCCATCTAC”, the binding signal (RPM ratio (pull-down/input)) was determined as 0.369.

On to “GATGATTGTTCTCCCAGCTGATGAATTTAACTAGTCGAGTAAACAAATTTTCCTAATCTTTCTGTTCAAGCGCCATCTAC”, for which the binding signal (RPM ratio (pull-down/input)) amounted to 0.336.

“GATGATTGTTCTCCCAGCTGATGAATTTAGATAATCGAGTAAACAAATTTTCCTAATCTTTCTGTTCAAGCGCCATCTAC”: the binding signal (RPM ratio (pull-down/input)) worked out at 0.583.

On to “GATGATTGTTCTCCCAGCTGATGAATTCTACTGCTCGAGTAAACAAATTTTCCTAATCTTTCTGTTCAAGCGCCATCTAC”, for which the binding signal (RPM ratio (pull-down/input)) turned out to be 0.346.

On to “GATGATTGTTCTCCCAGCTGATGAATTGCCGCGGTCGAGTAAACAAATTTTCCTAATCTTTCTGTTCAAGCGCCATCTAC”, for which the binding signal (RPM ratio (pull-down/input)) was 0.522.

Consider “GATGATTGTTCTCCCAGCTGATGAATTTTCACTTTCGAGTAAACAAATTTTCCTAATCTTTCTGTTCAAGCGCCATCTAC”, for which the binding signal (RPM ratio (pull-down/input)) is 0.294.

For the sequence “GATGATTGTTCTCCCAGCTGATGAATTCTCACTGTCGAGTAAACAAATTTTCCTAATCTTTCTGTTCAAGCGCCATCTAC”, the binding signal (RPM ratio (pull-down/input)) is 0.285.

For “GATGATTGTTCTCCCAGCTGATGAATTGCGTAGATCGAGTAAACAAATTTTCCTAATCTTTCTGTTCAAGCGCCATCTAC”, the binding signal (RPM ratio (pull-down/input)) came out at 0.82.

For the sequence “GATGATTGTTCTCCCAGCTGATGAATTTTGTTCCTCGAGTAAACAAATTTTCCTAATCTTTCTGTTCAAGCGCCATCTAC”, the binding signal (RPM ratio (pull-down/input)) was determined as 1.64.

Take “GATGATTGTTCTCCCAGCTGATGAATTGTCGGTGTCGAGTAAACAAATTTTCCTAATCTTTCTGTTCAAGCGCCATCTAC”: the binding signal (RPM ratio (pull-down/input)) stood at 0.555.

Consider “GATGATTGTTCTCCCAGCTGATGAATTCCCATGTTCGAGTAAACAAATTTTCCTAATCTTTCTGTTCAAGCGCCATCTAC”, for which the binding signal (RPM ratio (pull-down/input)) worked out at 0.414.

Turning to “GATGATTGTTCTCCCAGCTGATGAATTTCCTACCTCGAGTAAACAAATTTTCCTAATCTTTCTGTTCAAGCGCCATCTAC”, the binding signal (RPM ratio (pull-down/input)) was 0.264.

“GATGATTGTTCTCCCAGCTGATGAATTTATCAGGTCGAGTAAACAAATTTTCCTAATCTTTCTGTTCAAGCGCCATCTAC”: the binding signal (RPM ratio (pull-down/input)) turned out to be 0.603.

Turning to “GATGATTGTTCTCCCAGCTGATGAATTACAGTAGTCGAGTAAACAAATTTTCCTAATCTTTCTGTTCAAGCGCCATCTAC”, the binding signal (RPM ratio (pull-down/input)) stood at 0.54.

As to “GATGATTGTTCTCCCAGCTGATGAATTCGCCGCGTCGAGTAAACAAATTTTCCTAATCTTTCTGTTCAAGCGCCATCTAC”, the binding signal (RPM ratio (pull-down/input)) is 0.542.

Consider “GATGATTGTTCTCCCAGCTGATGAATTTAGCCTGTCGAGTAAACAAATTTTCCTAATCTTTCTGTTCAAGCGCCATCTAC”, for which the binding signal (RPM ratio (pull-down/input)) stood at 4.82.

For the sequence “GATGATTGTTCTCCCAGCTGATGAATTACCTCAATCGAGTAAACAAATTTTCCTAATCTTTCTGTTCAAGCGCCATCTAC”, the binding signal (RPM ratio (pull-down/input)) worked out at 0.271.

With “GATGATTGTTCTCCCAGCTGATGAATTCGAAGTGTCGAGTAAACAAATTTTCCTAATCTTTCTGTTCAAGCGCCATCTAC”, the binding signal (RPM ratio (pull-down/input)) is 0.452.
